# Data as given in PubChem BioAssay AID1794737 (DTP/NCI, 2022).
#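 How to read the values: 0–100, growth inhibition (40 = 60% inhibited); 0, no net growth; -100 to 0, cell death (-40 = 40% of starting cells died; -100 = all dead).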 For part of its entries the source gives two or more results. The list is limited to them. There may be further records. These are repeated runs of one drug, at its own concentration, as given; one value stands for one run. Marks such as (2×) say how often a value occurs here.
# Test system: LXFL 529 NSCLC
# Assay: NCI-60 one-dose screen, 48 h (100 = growth as untreated, 0 = no growth, -100 = all killed)
# Settings: 2.5 mM
# Procedure: Growth inhibition of the LXFL 529 human Non-Small Cell Lung tumor cell line is measured as a screen for anti-cancer activity. Cells are grown in 96 well plates and exposed to the test compound for 48 hours. Compounds are tested at a single concentration, which is 10^-5 M for most compounds. The reported endpoint is percent growth (GI% or GIPRCNT), where numbers from 0 - 100% represent growth inhibition, and numbers from -100% - 0 represent cell death. For example, a value of 40 represents 60% growth inhibition. A value of 0 means no net growth occurred over the course of the experiment. A value of -40 indicates 40% of cells at the beginning of the experiment died by the end of the experiment. A value of -100 means all cells are dead at the end of the experiment.
# NCI-60 Human Tumor Cell Lines Screen was performed using the standard one-dose NCI protocol, which is described in more detail at https://dtp.cancer.gov/discovery_development/nci-60/default.htm.
# Compounds with GIPRCNT values below 10 were considered active. Activity score was based on GIPRCNT using the following formula: […]
# Score is 0 for GIPRCNT values of 100 or above, 50 for GIPRCNT values of 0, and 100 for GIPRCNT values of -100.
structure (smiles),measurement,setting,value
O=c1[nH]cc(F)c(=O)[nH]1,growth,runs of 1991,"32.3, 29.8, 23.1, 31.8, 28.7, 26.5, 23.3, 36.5, 21.8, 28.6, 29.6%"
same,growth,runs of 1992,"33.8, 31.9 (2×), 32.4, 34.4, 32.3 (2×), 28.9, 31.8, 30.7, 30, 21.4 (2×), 20.8, 15.2, 22.2, 13.1, 39.4, 16.6, 25.1, 25.9, 27.6, 31.5, 38.4, 33.5, 22.1 (2×), 29.4, 30.4, 2.5, 22.9, 10.8, 30.1, 27.3 (2×), 22.8, 31.7, 33.3, 24.4 (2×), 34.2, 13.8, 27.7 (2×), 26.9, 23.8, 28.2, 33.7, 27.2, 26.3, 29.5, 28.5, 28.7, 26.7, 27.4, 26.8 (2×), 16.5, 19.7, 31.4, 23.4, 29.7, 28.1, 37.5, 28.8 (2×), 21.1, 32.2, 28.6, 35.2, 23.9, 23.1, 23.5, 33.4 (3×), 32.8, 31, 29.3, 35.9, 26.2, 33.6, 33, 24.7, 29.9, 35.7, 38.2, 32.9, 28.4%"
